The results in this text go back to PubChem BioAssay AID1346428 (National Center for Advancing Translational Sciences (NCATS), 2018).

About 1,200 (2.5%) of roughly 48,000 compounds were called active. About 2% were inconclusive and are not listed.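 How the source made its calls: active means activation of at least 60% and not above a set upper limit (about 1 call in 100 departs from these limits); inconclusive means activation of 40% to 60%, or above that upper limit; inactive means activation under 40%.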 The list shows a part of the results.

In the test the target is Probable G-protein coupled receptor 32 (Homo sapiens) (UniProt O75388). Briefly: qHTS for Agonists of Human Resolvin D1 Receptor DRV1. Further: 0% is about no effect. The conditions noted are these: CHO-K1 GPR32 beta-arrestin PathHunter luminescence, 90 min; at 76.9 µM; active compounds read high; zero percent set by DMSO-only wells. The method in brief: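 Engineered CHO-K1 line co-expressing GPR32-ProLink and EA-beta-arrestin. Compound treatment lasted 90 min at 37 °C. Luminescence was recorded after 1 h with substrate at ambient temperature, relative to DMSO basal wells.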
UniProt O75388, sequence (O75388 whole entry, looked up): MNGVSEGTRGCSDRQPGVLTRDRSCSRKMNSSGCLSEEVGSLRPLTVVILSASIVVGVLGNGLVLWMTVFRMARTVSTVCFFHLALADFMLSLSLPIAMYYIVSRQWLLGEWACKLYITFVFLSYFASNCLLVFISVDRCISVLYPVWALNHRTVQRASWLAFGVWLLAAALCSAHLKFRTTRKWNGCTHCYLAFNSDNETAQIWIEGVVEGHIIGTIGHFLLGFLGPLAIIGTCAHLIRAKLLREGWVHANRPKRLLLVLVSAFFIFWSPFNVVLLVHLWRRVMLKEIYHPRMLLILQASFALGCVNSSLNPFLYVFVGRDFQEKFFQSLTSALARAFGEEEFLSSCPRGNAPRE
Consider `O=C(c1ccc2c(c1)N(Cc1cccc(Cl)c1)C(=O)c1ccccc1S2(=O)=O)N1CCCC1`, for which the activation is inactive: -33.8%. For `Cc1ccccc1Cn1nnc2c(=O)[nH]c(C3CCCN(C(=O)c4ccc(C(C)(C)C)cc4)C3)nc21` (centres undefined) the value was inactive: -18.1%; for `O=C(Cn1cc(SCc2ccc(F)cc2)c2ccccc21)N1CCCCCC1`, inactive: -30.8%; for `N#Cc1c(-c2ccccc2)cc(-c2ccccc2)nc1SCC(O)CS(=O)(=O)Cc1ccccc1` (centres undefined), inactive: -22.4%.

As for `CCOCCCNC(=O)C1CCCN(c2ncnc3onc(C)c23)C1` (centres undefined), the activation was inactive: 13.3%.

As for `O=C(CCc1ccccc1)N(Cc1cccnc1)c1nc2ccc(F)cc2s1`, the activation was inactive: -19.7%.

Take `CCN(CC)C(=O)CSc1nc2c(c(=O)n(C)c(=O)n2C)n1Cc1ccccc1`: the activation is inactive: -11.5%. For `CCOc1ccc(NC(=O)c2cnn(-c3ccccc3)c2-n2cccc2)cc1` the value was inactive: -6.74%. Next, `COc1ccccc1Cc1nc2ccccc2nc1SCC(=O)N1CCCCC1`: inactive: -29.4%.

As for `C=C1c2cccc(O)c2C(O)=C2C(=O)[C@]3(O)C(O)=C(C(N)=O)C(=O)[C@@H](N(C)C)[C@@H]3[C@@H](O)[C@H]12`, the activation was inactive: -0.884%. For `CCCCOc1ccccc1NC(=O)CC1Sc2ccccc2NC1=O` (centres undefined) the value was inactive: -8.46%; for `COc1ccc(NC(=O)c2sc3nc4n(c(=O)c3c2C)CCC4)c(OC)c1`, inactive: -2.34%; for `CCOC(=O)N1CCN(c2ncc3c(n2)CC(c2ccc(OC)c(OC)c2)CC3=O)CC1` (centres undefined), inactive: 48.3%. In the case of `COc1ccc(CCNC(=O)CCc2c(C)nc3cc(-c4ccc(Cl)cc4)nn3c2C)c(OC)c1`, the activation is inactive: 0.99%. For `Cc1noc(/C=C/c2ccccc2F)c1S(=O)(=O)N1CCC(C(=O)NCc2ccco2)CC1` the value was inactive: -22.3%; for `CCOC(=O)c1ccccc1NC(=O)N1CCCn2nc(C)cc21`, inactive: -20%. For `COc1ccc(C(=O)Nc2cccc(OCc3cc(=O)n4c5c(sc4n3)CCCC5)c2)cc1OC` the value was active: 63.4%; for `Cc1cc(C)cc(N2C(=O)CSC23C(=O)N(CC(=O)NC2CCCCC2)c2ccccc23)c1` (centres undefined), inactive: -8.6%; for `CCc1ccc(NC(=O)Cn2c(=O)n(Cc3ccc(C)cc3)c(=O)c3cccnc32)cc1`, inactive: -5.52%. Next, `CC(=O)N1CCCc2cc(S(=O)(=O)N3CCC(C(=O)N(C)C4CCCCC4)CC3)ccc21`: inactive: 6.57%; `Cc1ccccc1C(=O)Nc1nnc(S(=O)(=O)N2CCc3ccccc32)s1`: inactive: 1.11%. Regarding `CCOc1ccc2nc(N3CCC(C(=O)Nc4cc(C)ccc4C)CC3)sc2c1`, the activation was inactive: -0.711%. `Cc1ccc(Cl)cc1NC(=O)CCn1c(=O)c2cccn2c2cccnc21`: the activation is inactive: -7.52%. As to `COc1ccc(NC(=O)CSc2nc(-c3cccs3)cc(C(F)(F)F)n2)c(OC)c1`, the activation is inactive: 45.6%. Next, `O=C(NC1CCCCC1)c1ccc(CSc2nc3ccncc3n2Cc2ccccc2F)cc1`: inactive: -7.63%; `Cc1ccc(NC(=O)Cn2cc3c(n2)CCCC3)c(C)c1`: inactive: -0.721%.

`CCc1ccc(NC(=O)CSc2ccc(-c3cccs3)nn2)cc1`: the activation was inactive: 19.4%.

With `Oc1c(C(c2ccccc2Cl)N2CCN(Cc3ccccc3)CC2)sc2nc(-c3ccco3)nn12` (centres undefined), the activation was active: 94.3%.

Regarding `CCN(CC)CCCNC(=O)CSc1nc(-c2ccc(OC)cc2)cc(C(F)(F)F)n1`, the activation was inactive: -10.1%. As to `O=C(CSCc1cnn(-c2ccccc2)c1-n1cccc1)NCc1ccc(F)cc1`, the activation is inactive: -13.5%. For `Cc1noc(Cn2c(=O)c3cc4c(cc3n(CC(=O)Nc3ccccc3F)c2=O)OCO4)n1` the value was inactive: -9.36%.

Take `CCOC(=O)C1CCC(CN(Cc2ccc(OC)cc2)S(=O)(=O)c2ccc(F)c(C(=O)Nc3cc(C)ccc3C)c2)CC1` (centres undefined): the activation was inactive: -9.36%. For `CCOC(=O)c1cnc2ccc(OCC)cc2c1N1CCN(c2ccccc2F)CC1` the value was inactive: -2.98%; for `CCOc1ccc(NC(=O)c2ccc3snnc3c2)cc1`, inactive: 0.468%; for `Cc1nc(N2CCCC2)c2c(C(=O)Nc3ccc(Br)cc3F)c(C)oc2n1`, inactive: -36%.

As for `COc1ccc(-c2csc3nc(-c4ccccc4)oc(=O)c23)cc1OC`, the activation was inactive: -3.99%.

Consider `Cc1ccccc1C(=O)Nc1nc(-c2ccc(Br)cc2)ns1`, for which the activation was inactive: 24.2%. Next, `CCOC(=O)c1c(C)n(-c2ccccc2)c2ccc(OC(=O)c3cccc(Cl)c3)cc12`: inactive: -11.5%; `CC(C)NC(=O)C1CCC(Cn2c(=O)c3sccc3n(CC(=O)Nc3ccccc3)c2=O)CC1` (centres undefined): inactive: -14.4%.

Turning to `FC(F)(F)c1cc(-c2cccc(Br)c2)nc2ncnn12`, the activation was inactive: -2.62%. For `CC(=O)c1cc(-c2ccccc2)n(CC(=O)NCCc2ccc(C)cc2)c1C` the value was inactive: -13.4%; for `CC(C)Oc1ccc(CNC(=O)C2CCN(C(=O)N3CC(C)Oc4ccccc43)CC2)cc1` (centres undefined), inactive: 5.11%; for `Cc1cccc(-c2nc(CSc3nncn4c3cc3sccc34)c(C)o2)c1`, inactive: 3.77%. Next, `CCOC(=O)c1ccc(CN(Cc2ccccc2)S(=O)(=O)c2ccc(Cl)cc2)cc1`: inactive: -16.7%; `CN(C(=O)CSc1nc2ccccc2n1CC(=O)N(C)C1CCCCC1)c1ccccc1`: inactive: -5.61%. For the molecule `Cc1ccc2c(CNC3CCCC3)c(C(=O)O)n(Cc3ccc(F)cc3)c2c1`, the activation is inactive: -1.15%. Consider `Cc1ccc(C)c(NC(=O)c2cc(S(=O)(=O)NCCc3ccccc3)ccc2F)c1`, for which the activation is inactive: -15%.

`COc1ccc(NC(=O)C2CCN(S(=O)(=O)c3cc(-c4noc(C)n4)ccc3C)CC2)cc1`: the activation was inactive: 9.01%. Turning to `Cc1cccc(NC(=O)CN2C(=O)CCn3nc(-c4cccn4C)cc32)c1C`, the activation is inactive: -16.4%. Next, `Cc1noc(/C=C/c2ccccc2F)c1S(=O)(=O)N1CCC(C(=O)Nc2ccc(C#N)cc2)CC1`: inactive: -22.3%. For `CCCCNC(=O)CCn1c(=O)c2ccccc2n(Cc2cccc(Cl)c2)c1=O` the value was inactive: -26.8%; for `CCOC(=O)C1CCCN(C(=O)c2ccc3c(c2)N(Cc2ccc(Cl)cc2)C(=O)c2ccccc2S3=O)C1` (centres undefined), inactive: -1.68%. As for `O=C(CSc1nc2ccsc2c(=O)n1-c1ccc(Br)cc1)NCc1ccccc1`, the activation was inactive: -36.5%. For `CCOC(=O)c1ccc(NC(=O)c2ccc(CN3C(=O)CCn4nc(C)cc43)cc2)cc1` the value was inactive: -4.09%. For `CCCCN(CC)C(=O)C1CCCN(c2ncnc3c2nc2n3CCCCC2)C1` (centres undefined) the value was inactive: 21.6%. Next, `CCOc1ccc(CNC(=O)CCn2c(=O)c3cccn3c3ccc(F)cc32)cc1`: inactive: -21%.

For `Cc1ccccc1C(=O)N1CCC(N2CCN(Cc3ccc(F)cc3)C(=O)C2=O)CC1`, the activation is inactive: -7.72%. For `O=C(CSc1nnc2scc(-c3ccccc3)n12)Nc1ccc(Cl)cc1` the value was inactive: -23.7%; for `CCOC(=O)c1c(C)[nH]c(C)c1S(=O)(=O)N(C)CC(=O)NCc1cccc(Br)c1`, active: 101%; for `COc1ccc(NC(=O)NCCn2nnc3cc(S(=O)(=O)N(C)C)ccc32)cc1`, inactive: 8.23%. As for `CC1CCN(c2ccc(-c3nc(-c4ccccc4)no3)cc2[N+](=O)[O-])CC1`, the activation was inactive: 5.75%. Consider `CCc1cccc(C)c1NC(=O)CCCN1C(=O)C(c2ccccc2)Oc2cccnc21` (centres undefined), for which the activation is inactive: 5.79%. For `O=C(Cn1c(=O)c2ccccc2n2nncc12)Nc1cccc(F)c1`, the activation is inactive: 2.23%. For `O=C(NCc1nc2ccccc2[nH]1)c1cccc(Cl)c1` the value was inactive: 4.48%. Next, `Cc1cc(N2CCCCC2)nc2ccc(NC(=O)/C=C/c3ccc(OCCC(C)C)cc3)cc12`: inactive: 7.48%; `CCc1cccc(C)c1NC(=O)CCCn1nc(C)c2sc3ccccc3c2c1=O`: inactive: -10.7%; `Cc1ccccc1Cn1cnc2nc3c(cc2c1=O)CC(C)CC3` (centres undefined): inactive: -5.82%. For `CCOc1ccc2nc(S(N)(=O)=O)sc2c1` the value was inactive: -5.08%; for `COc1ccc(OC)c(NC(=O)CCNS(=O)(=O)c2cccc3nsnc23)c1`, inactive: 16.7%; for `COc1ccccc1CNc1ccc(-c2nc(-c3ccccn3)no2)cc1[N+](=O)[O-]`, inactive: -11.3%. `O=C(NCc1ccc(F)cc1)c1c2c(nc3ccccc13)C(=O)N(C1CCCCC1)C2`: the activation is inactive: -15.1%.

Take `COc1cc(Cl)c(C)cc1NC(=O)Cn1cc(S(=O)(=O)N2CCN(c3ccccc3F)CC2)c2ccccc2c1=O`: the activation is inactive: -1.16%. For `Cc1cccc(CCNC(=O)C2CCC(CNS(=O)(=O)c3c(C)cc(C)cc3C)CC2)c1` (centres undefined) the value was inactive: -16.1%. As to `O=C(Cc1ccc(NC(=O)N2CCCCc3ccccc32)cc1)NCc1ccccc1Br`, the activation is inactive: -18%. As to `CCc1ccc(NC(=O)CSc2nc3n[nH]c(C)c3c(=N)n2-c2ccc(C)cc2)cc1`, the activation is inactive: 43.2%. For `Cc1cccc(NS(=O)(=O)c2ccc3[nH]c(=O)[nH]c3c2)c1C` the value was inactive: 13.3%; for `O=C(CCC1N=C2c3ccccc3N=C(SCC(=O)Nc3ccccc3F)N2C1=O)NCc1ccco1` (centres undefined), inactive: -3.31%; for `N#Cc1ccc(OC(=O)c2cc(-c3ccc(Cl)cc3)on2)cc1`, inactive: 29.7%. Next, `Cc1ccc(NC(=O)CN(C)S(=O)(=O)c2ccc3c(c2)n(C)c(=O)c(=O)n3C)c(C)c1`: inactive: -3.55%. Next, `N[C@H](C(=O)O)c1ccc(O)cc1`: inactive: 4.94%; `CCc1ccc(CN2C(=O)c3ccccc3C2C(=O)NC2CCCCCC2)cc1` (centres undefined): inactive: -18.4%. For the molecule `CC(C)(C)C(=O)Nc1ccc(-c2nc3ccccc3s2)cc1`, the activation is inactive: -3.13%. For `CCOc1ccc(-c2c(C)nn3c(C)c(C(=O)NCc4cccc(OC)c4)cnc23)cc1OCC` the value was inactive: 0.964%; for `COc1ccc(-n2ncc(C(=O)N3CCN(Cc4ccccc4)CC3)c2C2CCN(C(=O)OC(C)(C)C)CC2)cc1`, inactive: -2.76%.
